Here are results for two molecules from patent publication US20250002557A1 (SUZHOU LIGHT FERRY BIOMED, published 2025).

Assay [1] addresses T1, VEGF-A165 (UniProt P15692-4 27-191).
T1 construct: Bought reagent
T1 sequence (looked up): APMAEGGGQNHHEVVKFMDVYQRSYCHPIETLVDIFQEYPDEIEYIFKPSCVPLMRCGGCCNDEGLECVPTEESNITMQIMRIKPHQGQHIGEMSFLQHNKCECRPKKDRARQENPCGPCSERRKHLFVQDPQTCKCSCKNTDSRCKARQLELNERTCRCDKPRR
Description: ELISA, VEGF-A165 coated, anti-human Fc-HRP, OD450. For orientation: An ELISA detects its analyte on a solid surface through an enzyme-linked reagent.

A further assay addresses T2, VEGF-A 121 (UniProt P15692-9 27-147).
T2 construct: Bought reagent
T2 sequence (looked up): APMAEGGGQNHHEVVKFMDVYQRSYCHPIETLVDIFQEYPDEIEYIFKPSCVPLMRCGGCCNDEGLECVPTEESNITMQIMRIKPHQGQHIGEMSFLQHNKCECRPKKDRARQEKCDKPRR
Description: ELISA, VEGF-A 121 coated, anti-human Fc-HRP, OD450.

Assay [2] addresses T1, VEGF-A165. Kind of assay: ELISA binding to VEGF-A165, absorbance 450 nm.
Assay [3] concerns the target T3, VEGF-D (UniProt O43915 89-205, limits assumed).
T3 construct: Bought reagent
T3 sequence (looked up): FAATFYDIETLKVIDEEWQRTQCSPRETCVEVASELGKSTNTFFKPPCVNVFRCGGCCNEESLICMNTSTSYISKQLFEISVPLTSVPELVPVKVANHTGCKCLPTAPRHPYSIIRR
Description: blocking ELISA: His-VEGF-D premixed with sample, binding to coated VEGFR2-Fc read with anti-His-HRP. How it is done: During the blocking period, each recombinant receptor molecule was serially diluted from high to low concentrations, mixed evenly with 100 ng/well of VEGF-C or VEGF-D (both labeled with His-tag), allowing for incubation at room temperature for 30 minutes. […] The plates were washed with PBST, then anti-polyhistidine secondary antibody conjugated with horseradish peroxidase was added to allow for incubation and binding at room temperature for 1 hour. Then the plates were washed with PBST, TMB was added for color development, terminated with 5% hydrochloric acid solution, and finally, the OD values at 450 nm were read using a microplate reader.

In another assay the target is T4, PDGF-CC (UniProt Q9NRA1 235-345).
T4 construct: Bought reagent
Kind of assay: SPR, PDGF coupled to chip, trap in flow. The source says:
(§1) Nevertheless, it was found in the preliminary detection experiments that PDGF family molecules (purchased from R&D Systems Inc.) were prone to produce non-specific binding in the chip, resulting in a pseudo-elevation in measured values, such that the detection could not be completed. Therefore, PDGF-AA, PDGF-AB, PDGF-BB and PDGF-CC molecules were separately loaded through a coupling reaction on a CM5 chip, followed by influx of the recombinant receptor molecules, thus effectively eliminating the impact of non-specific binding on affinity determination.
On the technique in general: In SPR one partner is held on a chip, and binding of the other changes the refractive index at the surface.

In another assay the target is T5, PDGF-AB (UniProt P04085 87-211; P01127 82-190).
T5 construct: Bought reagent
Kind of assay: SPR, PDGF coupled to chip, trap in flow.
Description: as §1

The target in a further assay is T6, PDGF-AA (UniProt P04085 87-211).
T6 construct: Bought reagent
Kind of assay: SPR, PDGF coupled to chip, trap in flow.
Description: as §1

The next assay addresses T7, PDGF-BB (UniProt P01127 82-190).
T7 construct: Bought reagent
Description: SPR, PDGF coupled to chip, trap in flow.
Description: as §1

Assay [4] addresses T3, VEGF-D. Kind of assay: ELISA binding to VEGF-D, OD450.
Assay [5] concerns the target T1, VEGF-A165. Kind of assay: blocking ELISA: His-VEGF-A165 premixed with sample, binding to coated VEGFR1-Fc read with anti-His-HRP.
Assay [6] addresses T8, PIGF (UniProt P49763-2 19-149, limits assumed).
T8 construct: Bought reagent; also called PLGF; placental growth factor
T8 sequence (looked up): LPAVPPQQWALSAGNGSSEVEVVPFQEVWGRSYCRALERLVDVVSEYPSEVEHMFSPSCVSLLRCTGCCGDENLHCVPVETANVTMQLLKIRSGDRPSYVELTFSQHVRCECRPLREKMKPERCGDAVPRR
Kind of assay: ELISA, PlGF coated, anti-human Fc-HRP, OD450.

The target in assay [7] is T3, VEGF-D. Kind of assay: blocking ELISA: His-VEGF-D premixed with sample, binding to coated VEGFR2-Fc read with anti-His-HRP. This is another data set of the same source.
Assay [8] deals with T9, VEGF-C (UniProt P49767 112-227, limits assumed).
T9 construct: Bought reagent
T9 sequence (looked up): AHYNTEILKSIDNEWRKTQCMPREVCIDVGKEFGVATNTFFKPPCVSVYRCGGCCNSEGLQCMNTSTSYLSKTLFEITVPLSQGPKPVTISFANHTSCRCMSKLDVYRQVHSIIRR
Kind of assay: blocking ELISA: His-VEGF-C premixed with sample, binding to coated VEGFR2-Fc read with anti-His-HRP.

Assay [9] deals with T10, VEGF-B (UniProt P49765-2 22-188, limits assumed).
T10 construct: Bought reagent
T10 sequence (looked up): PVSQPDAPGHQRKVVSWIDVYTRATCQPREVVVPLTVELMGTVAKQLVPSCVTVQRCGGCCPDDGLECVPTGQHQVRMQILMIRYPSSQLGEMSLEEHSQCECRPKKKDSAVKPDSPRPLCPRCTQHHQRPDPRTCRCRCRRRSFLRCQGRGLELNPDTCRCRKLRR
Kind of assay: ELISA, VEGF-B coated, anti-human Fc-HRP, OD450.

In assay [10] the target is T10, VEGF-B. Kind of assay: ELISA, VEGF-B coated, anti-human Fc-HRP, OD450. The source holds these as a separate data set.
Assay [11] concerns the target T1, VEGF-A165. Kind of assay: blocking ELISA: His-VEGF-A165 premixed with sample, binding to coated VEGFR2-Fc read with anti-His-HRP.
Assay [12] deals with T1, VEGF-A165. Described as above. This is another data set of the same source.
Assay [13] concerns the target T8, PIGF. Kind of assay: ELISA, PlGF coated, anti-human Fc-HRP, OD450. The source holds these as a separate data set.
Assay [14] addresses T9, VEGF-C. Description: blocking ELISA: His-VEGF-C premixed with sample, binding to coated VEGFR2-Fc read with anti-His-HRP. This is another data set of the same source.
The target in assay [15] is T9, VEGF-C. Description: ELISA binding to VEGF-C, absorbance 450 nm.

Read-outs that look alike come from different tables or passages of the source.

The term EC50 denotes the concentration giving half of the maximal effect. Lower therefore signals higher potency in that assay. The term Kd denotes the equilibrium constant for the complex coming apart. A low value points to higher affinity. By kon is commonly meant the second-order rate constant of association. Higher therefore signals faster complex formation. The koff is the first-order rate constant of dissociation.

Chain of PDGF-BB (P01127 82-190): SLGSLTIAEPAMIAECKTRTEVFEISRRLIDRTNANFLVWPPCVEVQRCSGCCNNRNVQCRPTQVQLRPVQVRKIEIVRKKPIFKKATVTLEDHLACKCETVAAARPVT
Chain of PDGF-AB (P01127 82-190, chain 2 of 2, other chains not shown): as the sequence (P01127 82-190) above
Chain of PDGF-CC (Q9NRA1 235-345): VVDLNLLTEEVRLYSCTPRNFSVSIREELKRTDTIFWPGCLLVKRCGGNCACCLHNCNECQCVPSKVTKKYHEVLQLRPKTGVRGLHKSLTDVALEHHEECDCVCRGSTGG

B1: LFV-A (Fc fusion)
Fc fusion chain: YVQDYRSPFIASVSDQHGVVYITENKNKTVVIPCLGSISNLNVSLCARYPEKRFVPDGNRISWDSKKGFTIPSYMISYAGMVFCEAKINDESYQSIMYIVVVGPG[here human IgG1 Fc without letters]
notes: also called LFV-A Recombinant receptor molecule
Turning to B1, the binding result in the assay with VEGF-A165 [1] and with VEGF-A 121 was “no binding (tested: log10 3 (1000 ng/ml))” in each case.

B2: LFV-Q Recombinant receptor molecule (Fc fusion)
chain: YVQDYRSPFIASVSDQHGVVYITENKNKTVVIPCLGSISNLNVSLCARYPEKRFVPDGNRISWDSKKGFTIPSYMISYAGMVFCEAKINDESYQSIMYIVVVVGYRIYDVVLSPSHGIELSVGEKLVLQCTARTELNVGIDFNWEYPSSKHQHKKLVNRDLKTQSGSEMKKFLSTLTIDGVTRSDQGLYTCAASSGLMTKKNSTFVRVHEKGGGGSGRPFVEMYSEIPEIIHMTEGRELVIPCRVTSPNITVTLKKFPLDTLIPDGKRIIWDSRKGFIISNATYKEIGLLTCEATVNGHLYKTNYLTHRQTNTIIGPG[here human IgG1 Fc without letters]
Consider B2, for which the EC50 in the assay with VEGF-A165 [2] came out at 0.089 nM; in the assay with VEGF-D [3] it was 5.02 nM; in the assay with VEGF-D [4] it was 17.1 nM; in the assay with VEGF-A165 [5], 8.11 nM; in the assay with PIGF [6], 0.21 nM; with VEGF-D [7], 1.06 nM. For the same molecule, the 50% effective concentration (EC50) with VEGF-C [8] came out at 7.2 nM; in the assay with VEGF-B [9] it was 1.6 nM; with VEGF-B [10], 1.67 nM; in the assay with VEGF-A165 [11], 1.65 nM; in the assay with VEGF-A165 [12], 4.32 nM; with PIGF [13], 0.544 nM. Also, the values for the EC50 with VEGF-C [14] and in the assay with VEGF-C [15] were 14.6 nM and 0.3 nM, respectively. The Kd with PDGF-CC was found to be 99.3 nM; in the assay with PDGF-AB, 122 nM; with PDGF-AA, 10.4 nM; with PDGF-BB, 68.5 nM. Also, the on-rate (kon) was 21600 M⁻¹ s⁻¹ with PDGF-CC, 29600 M⁻¹ s⁻¹ with PDGF-AB, 42600 M⁻¹ s⁻¹ in the assay with PDGF-AA and 24800 M⁻¹ s⁻¹ in the assay with PDGF-BB. Further, the koff in the assay with PDGF-AB came to 0.00362 s⁻¹; in the assay with PDGF-AA it was 0.000442 s⁻¹; in the assay with PDGF-BB, 0.0017 s⁻¹.
